# Over roughly 33,000 sequences, “E-score (dimensionless, -0.5 to 0.5)” has its median near -0.058; the highest 2% begin near 0.35. The list shows a part of the results.
# Tested on: MvaT
# Assay: PBM 8-mer E-score (mean of HK and ME arrays) (E-score (dimensionless, -0.5 to 0.5)); higher = stronger relative binding preference; most listed sequences are background and not binding sites
# How it was run: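 Reported values are rank-based E-scores, taken as the mean of two universal arrays and parsed with a custom script. Each 8-mer score falls between -0.5 and 0.5. The arrays, ME and HK, were double-stranded 60-mers with a constant 25-mer primer region and a variable 35-mer region covering all 8-mers. They were probed, by an earlier protocol, with full-length P. aeruginosa MvaT carrying an N-terminal glutathione S-transferase fusion.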
row,Sequence,PBM 8-mer E-score
1,ACTGCGCT,-0.0936
2,TCGTACCA,0.0456
3,ACGGATTA,0.208
4,AATGTGAA,0.198
5,CCAGTCTC,-0.0808
6,AACCTCAC,-0.0716
7,CCACCACG,-0.234
8,GCCAAGCC,-0.261
9,ATTACAGA,0.217
10,AAGAAGTG,0.0962
11,ATACGTAC,0.0574
12,CGTTCATC,-0.232
13,CAAGGTAC,-0.151
14,CATGTCTC,0.00179
15,GGTGGCAA,-0.164
16,AGAGTTGG,-0.128
17,CAACGTAA,0.135
18,ATAATTGC,0.325
19,CGATAAGA,0.0173
20,CGTCTGAG,-0.303
21,CTACTGAA,-0.0994
22,TACTTCAA,0.303

row,Sequence,PBM 8-mer E-score
1,CGGGCAAG,-0.202
2,GTCGGGAA,-0.158
3,CCCCCGTA,-0.247
4,CCTACCTC,-0.226
5,CTATATTA,0.454
6,ATGACCCA,-0.0872
7,CCCATAGC,-0.288
8,CCAAATTC,0.0865
9,ATTGTAGG,0.0643
10,CCCTGGAG,-0.214
11,AGGGGACA,-0.227
12,AAGTGTAC,0.0796
13,GGTTGAAA,-0.0519
14,GTGATTGA,-0.0771
15,CGCAAACC,-0.0277
16,AGGAGTTC,-0.0442
17,AACTTCAG,0.158
18,ACCTGCTG,-0.164
19,AAGGAAGA,-0.104
20,AAACCCGA,-0.0944
21,AGGCATGC,-0.194
22,CGCGAGAC,-0.168

row,Sequence,PBM 8-mer E-score
1,CCCATGTA,0.0488
2,TAGTGTAA,0.277
3,TATGCCCA,-0.013
4,AAATGCAC,0.0514
5,ATCAAGTG,0.0346
6,GAGATAGA,-0.119
7,TCCATGGA,-0.00256
8,GGCCTCTA,-0.166
9,CCATATTA,0.353
10,CATTGGAA,0.0265
11,ACCATCAG,-0.267
12,ACTTCACC,0.118
13,AGCTTATA,0.307
14,CCCTGAGC,-0.354
15,ACTATAGG,0.061
16,CGGGGGAC,-0.256
17,CAAAGTAG,0.0209
18,AATCTCCA,-0.137
19,GAGCCCAC,-0.135
20,CCTGAACA,-0.0362
21,ACGGTGGA,-0.17
22,CCTAAGTC,-0.0334

row,Sequence,PBM 8-mer E-score
1,AGTGAAAT,0.14
2,GACTTCTA,0.0115
3,AGGCAGAC,-0.265
4,ACTCGACT,-0.137
5,GGGCGTAA,-0.0897
6,CTGGCCTC,-0.0945
7,CCTCTAAG,-0.0409
8,ACGCTTTC,-0.237
9,CTGGCATC,-0.181
10,AGGGCCTA,-0.21
11,AATGTGCT,0.00812
12,TCCGGTCA,-0.221
13,AATCCGCA,-0.00627
14,AAGGTATC,-0.0527
15,CTGGCGTA,-0.155
16,CTATGGTC,-0.227
17,ATCGGGTG,-0.109
18,CTGCCCCA,-0.23
19,ATACACGC,0.117
20,AACACAAT,0.256

# Source: the supplement of paper PMC4466236
